Numbering of substitutions follows the chain as printed.
T1: human IL-4 (human, UniProt P05112 25-153)
T1 sequence (looked up): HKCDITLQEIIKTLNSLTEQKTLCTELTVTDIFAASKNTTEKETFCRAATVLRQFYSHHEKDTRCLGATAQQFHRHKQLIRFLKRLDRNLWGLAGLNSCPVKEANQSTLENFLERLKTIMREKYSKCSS

T2: human IL-12 (p35 + p40) (human, UniProt P29459 23-219; P29460 23-328)
T2 sequence (looked up) 1: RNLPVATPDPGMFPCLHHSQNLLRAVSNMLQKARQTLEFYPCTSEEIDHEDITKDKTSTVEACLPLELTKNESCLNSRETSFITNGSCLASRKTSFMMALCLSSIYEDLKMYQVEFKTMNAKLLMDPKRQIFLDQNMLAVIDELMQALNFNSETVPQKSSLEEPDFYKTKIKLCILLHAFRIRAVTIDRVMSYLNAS
T2 sequence (looked up) 2: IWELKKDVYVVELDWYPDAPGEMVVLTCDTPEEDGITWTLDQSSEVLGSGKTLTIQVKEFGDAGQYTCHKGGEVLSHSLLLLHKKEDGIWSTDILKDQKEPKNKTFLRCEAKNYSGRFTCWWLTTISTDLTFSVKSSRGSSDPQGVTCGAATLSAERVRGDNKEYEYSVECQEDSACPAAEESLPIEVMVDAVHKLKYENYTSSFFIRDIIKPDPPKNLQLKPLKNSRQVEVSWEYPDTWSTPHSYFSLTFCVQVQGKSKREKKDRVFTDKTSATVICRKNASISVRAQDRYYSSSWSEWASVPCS

B1: IL413p40-0043 (other)
heavy: EVTLRESGPALVKPTQTLTLTCTFSGFSLSNFGEGLSWIRQPPGKGLEWLAHIYWDDDKRYNPSLKSRLTISKDTSRNQVVLTMTNMDPVDTATYYCARRETVFYWYFDVWGQGTTVTVSSASTKGPSVFPEAPSSKSTSGGTAALGCLVKDYFPEPVTVSWNSGALTSGVHTFPAVLQSSGLYSLGSVVTVPSSSLGTQTYICNVNHKPSNTKVDKKVEPKSCDKTHTCPPCPAPEAAGAPSVFLFPPKPKDTLMISRTPEVTCVVVDVSHEDPEVKFNWYVDGVEVHNAKTKPREEQYNSTYRVVSVLTVLHQDWLNGKEYKCKVSNKALPAPIEKTISKAKGQPREPQVYTLPPCREEMTKNQVSLSCAVKGFYPSDIAVEWESNGQPENNYKTTPPVLDSDGSFFLVSKLTVDKSRWQQGNVFSCSVMHEALHNHYTQKSLSLSPGK
chain 1: [about 200 residues not written out]GGGGSEVQLVESGGGLVQPGGSLRLSCAASGFTFSSYAMSWVRQAPGKGLEWVASISSGDTTYYPDSVKGRFTISRDNAKNSLYLQMNSLRAEDTAVYYCARNEGYYFGLTLWGQGTLVTVSSASTKGPSVFPKAPSSKSTSGGTAALGCLVKDYFPEPVTVSWNSGALTSGVHTFPAVLQSSGLYSLSSSVTVPSSSLGTQTYICNVNHKPSNTKVDKKVEPKSCDKTHTCPPCPAPEAAGAPSVFLFPPKPKDTLMISRTPEVTCVVVDVSHEDPEVKFNWYVDGVEVHNAKTKPREEQYNSTYRVVSVLTVLHQDWLNGKEYKCKVSNKALPAPIEKTISKAKGQPREPQVCTLPPSREEMTKNQVSLWCLVKGFYPSDIAVEWESNGQPENNYKTTPPVLDSDGSFFLYSKLTVDKSRWQQGNVFSCSVMHEALHNHYTQKSLSLSPGK
light 1: DIQMTQSPSSLSASVGDRVTITCKASQSVDEDGDSYMNWYQQKPGKAPKLLIYAASNLESGVPSRFSGSGSGTDFTLTISSLQPEDFATYYCQQSNEDPPTFGGGTKVEIKRTVAAPSVFIFPPSDEQLKSGTASVSCLLNNFYPREAKVQWKVDNALQSGNSQESVTEQDSKDSTYSLKSTLTLSKADYEKHKVYACEVTHQGLSSPVTKSFNRGEC
light 2: B1 light 1 with Q27E, E31H, D32F, D34W, Y36L, M37V, N38H, A54R, P100W, K180D
chain 2: EVQLVQSGAEVKKPGESLKISCKGSGYSFTTYWLGWVRQMPGKGLDWIGIMSPVDSDIRYSPSFQGQVTMSVDKSITTAYLQWNSLKASDTAMYYCARRRPGQGYFDFWGQGTLVTVSSASTKGPSVFPLAPSSKSTSGGTAALGCLVKDYFPEPVTVSWNSGALTSGVHTFPAVLQSSGLYSLSSVVTVPSSSLGTQTYICNVNHKPSNTKVDKKVEPKSC
B2: IL413p40-0648 (other)
heavy: EVQLVESGGGLVQPGGSLRLSCAASGFTFSSYAMSWVRQAPGKGLEWVASISTGDTTYYPDSVKGRFTISRDNAKNSLYLQMNSLRAEDTAVYYCARNEGYYFGLTQWGRGTLVTVSSASTKGPSVFPKAPSSKSTSGGTAALGCLVKDYFPEPVTVSWNSGALTSGVHTFPAVLQSSGLYSLSSSVTVPSSSLGTQTYICNVNHKPSNTKVDKKVEPKSCDKTHTCPPCPAPEAAGAPSVFLFPPKPKDTLMISRTPEVTCVVVDVSHEDPEVKFNWYVDGVEVHNAKTKPREEQYNSTYRVVSVLTVLHQDWLNGKEYKCKVSNKALPAPIEKTISKAKGQPREPQVCTLPPSREEMTKNQVSLWCLVKGFYPSDIAVEWESNGQPENNYKTTPPVLDSDGSFFLYSKLTVDKSRWQQGNVFSCSVLHEALHSHYTQKSLSLSPGK
chain 1: [about 200 residues not written out]GGGGSEVTLRESGPALVKPTQTLTLTCTFSGFSLSNFGEGLSWIRQPPGKGLEWLAHIYWDDDKRYSTSLKTRLTISKDTSRNQVVLTMTNMDPVDTATYYCARRETVFYWYFDVWGQGTTVTVSSASTKGPSVFPEAPSSKSTSGGTAALGCLVKDYFPEPVTVSWNSGALTSGVHTFPAVLQSSGLYSLGSVVTVPSSSLGTQTYICNVNHKPSNTKVDKKVEPKSCDKTHTCPPCPAPEAAGAPSVFLFPPKPKDTLMISRTPEVTCVVVDVSHEDPEVKFNWYVDGVEVHNAKTKPREEQYNSTYRVVSVLTVLHQDWLNGKEYKCKVSNKALPAPIEKTISKAKGQPREPQVYTLPPCREEMTKNQVSLSCAVKGFYPSDIAVEWESNGQPENNYKTTPPVLDSDGSFFLVSKLTVDKSRWQQGNVFSCSVLHEALHSHYTQKSLSLSPGK
light 1: DIQMTQSPSSLSASVGDRVTITCRASESVDHFGWSLVHWYQQKPGKAPKLLIYRADSLETGVPSRFSGSGSGTDFTLTISSLQPEDFATYYCQQSNEDPWTFGGGTKVEIKRTVAAPSVFIFPPSDEQLKSGTASVSCLLNNFYPREAKVQWKVDNALQSGNSQESVTEQDSKDSTYSLDSTLTLSKADYEKHKVYACEVTHQGLSSPVTKSFNRGEC
light 2: B1 light 1 with K24R, D32E, N96H, E97K
chain 2: B1 chain 2
B3: IL413p40-0044 (other)
heavy: B2 heavy with T53S, Q107L, R110Q, L429M, S435N
chain 1: [about 200 residues not written out]GGGGSEVTLRESGPALVKPTQTLTLTCTFSGFSLSNFGEGLSWIRQPPGKGLEWLAHIYWDDDKRYNPSLKSRLTISKDTSRNQVVLTMTNMDPVDTATYYCARRETVFYWYFDVWGQGTTVTVSSASTKGPSVFPEAPSSKSTSGGTAALGCLVKDYFPEPVTVSWNSGALTSGVHTFPAVLQSSGLYSLGSVVTVPSSSLGTQTYICNVNHKPSNTKVDKKVEPKSCDKTHTCPPCPAPEAAGAPSVFLFPPKPKDTLMISRTPEVTCVVVDVSHEDPEVKFNWYVDGVEVHNAKTKPREEQYNSTYRVVSVLTVLHQDWLNGKEYKCKVSNKALPAPIEKTISKAKGQPREPQVYTLPPCREEMTKNQVSLSCAVKGFYPSDIAVEWESNGQPENNYKTTPPVLDSDGSFFLVSKLTVDKSRWQQGNVFSCSVMHEALHNHYTQKSLSLSPGK
light 1: B2 light 1 with R24K, D56S, S57N, T60S
light 2: B1 light 1
chain 2: B1 chain 2

Tests used:
Assay in all cases: cell-based or functional assay
[1] = target: T1, human IL-4
[2] = target: human IL-13 (human, UniProt P35225 in part)
Sequence of UniProt P35225 (P35225 35-146 limits assumed): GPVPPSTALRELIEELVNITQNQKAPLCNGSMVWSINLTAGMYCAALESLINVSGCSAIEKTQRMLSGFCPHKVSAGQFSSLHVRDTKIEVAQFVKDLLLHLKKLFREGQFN

[3] = target: T2, human IL-12 (p35 + p40)

| Binder | a-hIL-4 bioassay IC50, pM) [1] [pM] | a-hIL-13 bioassay (IC50, pM) [2] [pM] | anti-IL12 bioassay IC50 [3] [nM] |
| --- | --- | --- | --- |
| B1 | 5.1 | 15.1 | 2.6 |
| B2 | 26.4 | 18.7 | – |
| B3 | 8.11 | 9.14 | 3.03 |

Reference: patent publication US20240117030A1 (Pfizer, published 2024)
